The whole screen tested about 350,000 compounds, of which about 9,900 (2.8%) were called active. Inconclusive results, whose numbers are uncertain, are shown with a selection of clear calls. Calls come from the whole dose curve; as a rule, active = well fitted activation curve with a large enough effect; inconclusive = small, poorly fitted or top-dose-only effect; inactive = no such curve, though single readings can be large or run the other way. No potency is given beside an inconclusive call; the fits are too rough.
Assay: A quantitative high throughput screen for small molecules that induce DNA re-replication in MCF 10a normal breast cells. Note: nearly all actives have a fitted effect of over 50% in size.
Details: MCF 10A DNA re-replication, Hoechst nuclear intensity, 48 h; series mostly up to 46.1 µM
Potency is the fitted concentration of half-maximal effect; tags give direction and shape of the fitted curve.

Which Potency does the source give for `Cc1cc(C)n(CCCNC(=O)CCNS(=O)(=O)c2ccccc2C(F)(F)F)n1` here?
The Potency was “inactive”.

With `Cc1cc(NC(=O)c2ccc(-c3ccccc3F)o2)no1` as the molecule, how does the Potency read?
Its Potency is inconclusive [activator, full curve, poor fit].

For `CCCCOC(=O)Nc1ccc(S(=O)(=O)Nc2onc(C)c2C)cc1`, which Potency is on record?
The Potency was “inactive”.

Which Potency does the source give for `O=C(c1cccs1)N1CCN(C(=O)c2cccs2)C1=S` here?
The Potency was active: 5.8 µM.

Which Potency does the source give for `Cc1nn(-c2ccccc2)c(N)c1Sc1ccccc1[N+](=O)[O-]` here?
The Potency was “inactive”.

With `O=C(NCC1CCCO1)C1CCN(C2CCN(CCCC3CCCC3)CC2)CC1` (centres undefined) as the molecule, how does the Potency read?
The Potency was active: 16.4 µM.

With `COc1ccc(COc2cc(-c3cccc(OC)c3)nc3ccc(NC(=O)c4ccc(C)cc4)cc23)cc1` as the molecule, how does the Potency read?
The Potency was active: 5.8 µM.

With `O=C(Nc1ccc2c(c1)OCCO2)c1cccc(S(=O)(=O)N2CCCCC2)c1` as the molecule, how does the Potency read?
Its Potency is inconclusive [activator, single point].

With `CCOC(=O)N1CCC2(CC1)C(C#N)=C(N)Oc1c2sc2nc(C)cc(C)c12` as the molecule, how does the Potency read?
The Potency was active: 7.31 µM.

For `O=C(c1ccc(Cl)cc1)c1ccc(CN2C(=O)c3ccccc3C2=O)o1`, which Potency is on record?
The Potency was “inactive”.

Which Potency does the source give for `C/C(=N/NC(=O)CN(c1ccccc1)S(=O)(=O)c1ccccc1)c1ccccc1O` here?
Its Potency is “inactive”.

With `c1c[nH]c(CN2CCN(Cc3ncc[nH]3)CC2)n1` as the molecule, how does the Potency read?
The Potency was “inactive”.

For `CC/C(=N\Nc1ccnc2cc(Cl)ccc12)c1ccc(O)cc1`, which Potency is on record?
The Potency was inconclusive [activator, single point].

For `COC(=O)c1ccccc1OCCCCN1CC(C)OC(C)C1` (centres undefined), which Potency is on record?
The Potency was inconclusive [activator, single point].

With `O=C(Nc1ccccc1)N(Cc1ccccc1)CC(O)C(F)(F)F` (centres undefined) as the molecule, how does the Potency read?
Its Potency is inconclusive [activator, partial curve, poor fit].

For `CCO[C@@H]1OC(C(=O)O)=C[C@H](C2CCCCC2)[C@H]1CCCO`, which Potency is on record?
Its Potency is inconclusive [activator, partial curve, poor fit].

Which Potency does the source give for `O=C1CCC[C@H]2c3[nH]c4ccccc4c3CCN12` here?
Its Potency is inconclusive [activator, full curve, poor fit].

With `Cc1ccc(OCCNS(=O)(=O)c2ccc(N3CCCC3=O)cc2)cc1C` as the molecule, how does the Potency read?
Its Potency is “inactive”.

With `CCc1nnc(SCC(=O)Nc2nccs2)n1CC` as the molecule, how does the Potency read?
Its Potency is “inactive”.

With `Cc1cc(C(=O)Cn2nnc(-c3ccc(Cl)cc3)n2)c(C)n1CC1CCCO1` (centres undefined) as the molecule, how does the Potency read?
Its Potency is inconclusive [activator, full curve, poor fit].

For `Cc1cc(NC(=O)c2ccc(C)o2)no1`, which Potency is on record?
Its Potency is inconclusive [activator, single point].

For `CCN1C(=O)/C(=C\c2cccc(OC(=O)c3ccco3)c2)SC1=S`, which Potency is on record?
The Potency was “inactive”.

Which Potency does the source give for `CCOC(=O)C1=C(C)OC(N)=C(C#N)C1c1ccc(C)o1` (centres undefined) here?
Its Potency is inconclusive [activator, partial curve, poor fit].

Which Potency does the source give for `CC1(C)Cc2c(C#N)c(NCC3CCCO3)nc(-c3ccco3)c2CO1` (centres undefined) here?
Its Potency is inconclusive [activator, single point].

With `COCC1CCCCN1C(=O)c1ccc2nc(Cc3ccc(OC)c(OC)c3)oc2c1` (centres undefined) as the molecule, how does the Potency read?
The Potency was “inactive”.

For `COc1ccc(NC(=O)c2oc3ccccc3c2NC(=O)C(C)(C)C)cc1`, which Potency is on record?
Its Potency is “inactive”.

Which Potency does the source give for `CCc1cccc(NC(=O)c2cc(OC)c(OC)c(OC)c2)c1` here?
Its Potency is inconclusive [activator, full curve, poor fit].

Which Potency does the source give for `CCN(CC)S(=O)(=O)c1ccc(Nc2nc3ccccc3n3nnnc23)cc1` here?
The Potency was inconclusive [activator, partial curve, poor fit].

Which Potency does the source give for `COc1ccc(-c2nc(N3CCN(C)CC3)sc2-c2ccc(OC)cc2)cc1` here?
Its Potency is inconclusive [activator, single point].

With `CCOc1ncccc1C(=O)NCCc1ccc(S(N)(=O)=O)cc1` as the molecule, how does the Potency read?
The Potency was “inactive”.

Which Potency does the source give for `Cc1ccccc1-n1ccnc1SCC(=O)NCc1ccco1` here?
Its Potency is “inactive”.

For `O=C(Nc1cc(F)ccc1F)c1ccc(-n2cncn2)c([N+](=O)[O-])c1`, which Potency is on record?
The Potency was “inactive”.

For `CCOc1ccccc1C(=O)Nc1cc(Cl)ccc1O`, which Potency is on record?
The Potency was inconclusive [activator, single point].

Which Potency does the source give for `COc1cc(/C=N/NC(=O)CSc2ccccn2)ccc1O` here?
The Potency was “inactive”.

With `S=C(NCc1ccco1)Nc1cc(-c2ccccc2)[nH]n1` as the molecule, how does the Potency read?
The Potency was “inactive”.

Which Potency does the source give for `N#CC1=C(N)Oc2n[nH]c(-c3cccs3)c2C1c1cccs1` (centres undefined) here?
Its Potency is inconclusive [activator, partial curve, poor fit].

For `COc1ccc(N/C=C/C(=O)c2sc(-c3ccccc3)nc2C)cc1`, which Potency is on record?
Its Potency is inconclusive [activator, single point].

Which Potency does the source give for `O=Cc1ccc(-c2ccc([N+](=O)[O-])cc2Cl)o1` here?
Its Potency is inconclusive [activator, full curve, poor fit].

Which Potency does the source give for `CN(C)CC(C)(C)CNC(=O)C1CCN(CCCc2ccccc2)CC1` here?
The Potency was inconclusive [activator, single point].

With `O=C(COC(=O)c1ccc(Br)o1)NCC1CCCCC1` as the molecule, how does the Potency read?
Its Potency is “inactive”.

With `CCn1cc(C(=O)N[C@H](C)c2ccccc2)c(=O)c2cc(F)c(N3CCN(C)CC3)cc21` as the molecule, how does the Potency read?
The Potency was inconclusive [activator, full curve, poor fit].

With `Cc1ccc(CN2CCN(/N=C\c3cccc([N+](=O)[O-])c3)CC2)cc1` as the molecule, how does the Potency read?
The Potency was “inactive”.

Which Potency does the source give for `COC(=O)C1=CN(Cc2cccs2)C=C(C(=O)OC)C1c1ccc(OC)cc1OC` here?
Its Potency is inconclusive [activator, single point].

Which Potency does the source give for `N#C/C(=N\Nc1ccc(Cl)cc1)C(=O)c1ccsc1` here?
The Potency was inconclusive [activator, partial curve, poor fit].

For `COc1ccc(/C=C/C(=O)c2ccc(NC3=NCCCS3)cc2)cc1OC`, which Potency is on record?
Its Potency is inconclusive [activator, single point].

For `O=C(Cc1ccc(NC(=O)C2CCCN(C(=O)C3CCCCC3)C2)cc1)Nc1cccc(C(=O)N2CCCCC2)c1` (centres undefined), which Potency is on record?
The Potency was “inactive”.

For `CN(C)CCCNc1oc(/C=C/c2cccs2)nc1S(=O)(=O)c1ccccc1`, which Potency is on record?
Its Potency is inconclusive [activator, single point].

With `OCCN1CCN(CC(O)COC(c2ccc(F)cc2)c2ccc(F)cc2)CC1` (centres undefined) as the molecule, how does the Potency read?
Its Potency is active: 23.1 µM.

For `COc1ccc(C2/C=C\CC(NS(=O)(=O)c3ccc(C)cc3)CC(=O)N2Cc2ccccc2F)cc1` (centres undefined), which Potency is on record?
Its Potency is “inactive”.

With `CC(C)OC(=O)c1cn(-c2ccccc2)nc1-c1ccc2c(c1)OCCO2` as the molecule, how does the Potency read?
Its Potency is inconclusive [activator, partial curve, poor fit].

Which Potency does the source give for `CCOC(=O)c1c(-c2ccc(OC)cc2)csc1NC(=O)CNCc1ccco1` here?
Its Potency is inconclusive [activator, partial curve, poor fit].

With `CC(=O)NC(=S)Nc1cccc([N+](=O)[O-])c1` as the molecule, how does the Potency read?
The Potency was inconclusive [activator, single point].

For `Cc1ccc(C)c(S(=O)(=O)ON2C(=O)c3ccccc3C2=O)c1`, which Potency is on record?
Its Potency is active: 5.8 µM.

For `COc1ccc(S(=O)(=O)N(n2c(C)nnc2-n2nc(C)cc2C)S(=O)(=O)c2ccc(OC)cc2)cc1`, which Potency is on record?
Its Potency is “inactive”.

For `Cc1onc(-c2ccccc2Cl)c1C(=O)N[C@@H](C)c1ccccc1`, which Potency is on record?
Its Potency is “inactive”.

With `COc1ccc(-c2ccc([C@H]3[C@H]4C=CC[C@@H](C)[C@@H]4C(=O)N3Cc3ccccc3)c(F)c2)cc1OC` as the molecule, how does the Potency read?
Its Potency is “inactive”.

Which Potency does the source give for `CCc1ccc(NC(=O)CSc2ccc(-c3ccco3)nn2)cc1` here?
The Potency was inconclusive [activator, partial curve, poor fit].

For `COc1cccc(CNc2ccc(N3CCCCC3)cc2)c1OC`, which Potency is on record?
Its Potency is inconclusive [activator, single point].

With `CCOC(=O)c1c(NC(=O)/C=C/c2ccco2)sc(C)c1C` as the molecule, how does the Potency read?
The Potency was inconclusive [activator, single point].

Which Potency does the source give for `O=c1c2cc(Br)ccc2nc(-c2cccc(C(F)(F)F)c2)n1O` here?
Its Potency is inconclusive [activator, full curve].

Which Potency does the source give for `CC(C)(C)C(=O)c1cn(CC(=O)O)c2ccccc12` here?
Its Potency is inconclusive [activator, single point].

With `COCCSc1nnc(NC(=O)CCS(=O)(=O)Cc2ccccc2)s1` as the molecule, how does the Potency read?
The Potency was inconclusive [activator, single point].

For `NS(=O)(=O)c1ccc(CCN2C(=O)CCC2=O)cc1`, which Potency is on record?
The Potency was “inactive”.

With `OCCCCC#Cc1c(-c2ccsc2)sc2ccccc12` as the molecule, how does the Potency read?
The Potency was inconclusive [activator, single point].

Which Potency does the source give for `O=C(c1ccc(OC2CCN(Cc3ccccn3)CC2)cc1)N1CCCCO1` here?
Its Potency is “inactive”.

Which Potency does the source give for `N/C(=N\OC(=O)N1CCOCC1)c1ccc(Br)cc1` here?
The Potency was inconclusive [activator, partial curve, poor fit].

With `COc1cc2ncnc(Nc3ccc(F)c(Cl)c3)c2cc1OCCCN1CCOCC1` as the molecule, how does the Potency read?
Its Potency is active: 29.9 µM.

Which Potency does the source give for `Cc1cccc(N2CCN(C(=O)c3ccncc3)CC2)c1C` here?
The Potency was inconclusive [activator, full curve].

With `CC(C)Nc1nc(NNc2nc(Cl)nc(NC(C)(C)C)n2)nc(NC(C)C)n1` as the molecule, how does the Potency read?
The Potency was inconclusive [activator, partial curve, poor fit].

For `Cc1ccc2oc(C(=O)N(C)Cc3ccon3)c(C)c2c1`, which Potency is on record?
Its Potency is “inactive”.

Which Potency does the source give for `Nc1cccc(C#Cc2ccc3c(c2)C(=O)/C(=C/c2ccsc2)O3)c1` here?
The Potency was “inactive”.

Which Potency does the source give for `c1ccc(Nc2cccc3c(Nc4ccccc4)cccc23)cc1` here?
Its Potency is inconclusive [activator, partial curve, poor fit].

With `Cc1c(Cl)cccc1NC(=S)NNc1ncc(C(F)(F)F)cc1Cl` as the molecule, how does the Potency read?
The Potency was inconclusive [activator, single point].

With `Cc1nc(CN(C)Cc2nc(Cc3cccc(F)c3)no2)cs1` as the molecule, how does the Potency read?
The Potency was inconclusive [activator, single point].

Reference: PubChem BioAssay AID624296 (National Center for Advancing Translational Sciences (NCATS), 2012)
